The campaign covered roughly 110,000 compounds. About 230 (0.21%) showed an effect of 50% or more. Some of the results follow.
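Note: 30 min substrate incubation versus DMSO and 10 µM JCP410 controls.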

The target in this assay is DPAP1 (Plasmodium falciparum, UniProt Q8IIJ9). In words: primary screen, percent inhibition; read by cleavage of a fluorogenic dipeptide substrate; higher = more effect of the substance. Also on record: species or system P. falciparum D10 trophozoite lysates; single well.
Sequence of DPAP1 (Q8IIJ9 whole entry, looked up): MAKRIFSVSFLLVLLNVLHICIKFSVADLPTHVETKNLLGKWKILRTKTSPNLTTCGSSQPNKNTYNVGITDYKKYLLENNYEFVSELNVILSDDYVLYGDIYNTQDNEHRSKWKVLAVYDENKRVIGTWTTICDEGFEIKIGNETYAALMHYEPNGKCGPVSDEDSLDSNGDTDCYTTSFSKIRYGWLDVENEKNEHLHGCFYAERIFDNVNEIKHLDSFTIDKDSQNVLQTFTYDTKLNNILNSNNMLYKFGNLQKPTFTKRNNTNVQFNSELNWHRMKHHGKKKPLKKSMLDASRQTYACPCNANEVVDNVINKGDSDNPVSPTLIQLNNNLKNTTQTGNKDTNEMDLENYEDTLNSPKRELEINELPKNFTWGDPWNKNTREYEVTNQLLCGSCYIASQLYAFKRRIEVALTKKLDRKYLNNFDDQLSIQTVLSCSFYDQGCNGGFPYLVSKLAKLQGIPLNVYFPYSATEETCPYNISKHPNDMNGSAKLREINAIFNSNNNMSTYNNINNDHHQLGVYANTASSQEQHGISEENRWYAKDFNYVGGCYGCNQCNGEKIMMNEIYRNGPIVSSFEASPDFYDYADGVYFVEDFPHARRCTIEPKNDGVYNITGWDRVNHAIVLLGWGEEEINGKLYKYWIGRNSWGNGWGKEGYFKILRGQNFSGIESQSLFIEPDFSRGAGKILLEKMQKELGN
For the compound `Cc1ccc(Cl)cc1NC(=O)c1cccc(F)c1`, the “% Inhibition @ 10 uM” value is given as 3.74%. With `COc1ccc(OC)c(C2=NOC(C(=O)N3C(C)CCCC3C)C2)c1` (centres unmarked) the figure was -0.644%. For `CC1(C)Cc2ccccc2-c2nc3n(c(=O)c21)CCS3` the value was 2.65%. For the compound `CC(=O)N1CCC(NCCc2ccccc2F)CC1`, the “% Inhibition @ 10 uM” value turned out to be 1.57%.

With `CC12CN3CC(C)(CN(C1)C3c1cccnc1)C2` (centres unmarked), the “% Inhibition @ 10 uM” value is -2.05%.

Turning to `COc1cc(/C=C2\SC(N)=NC2=O)ccc1OCc1ccc(Cl)cc1`, the “% Inhibition @ 10 uM” value is 2.87%. With `O=C(O)c1c2c(nc3ccccc13)CCCCCC2` the figure was -2.22%; with `Cc1nn(-c2ccccc2)c2c1C(c1cccs1)C1=C(O)CC(C)(C)CC1=N2` (centres unmarked), 2.46%; with `CCOc1ccc(C(=O)N(Cc2ccc(N(C)C)cc2)C2CCS(=O)(=O)C2)cc1` (centres unmarked), 1.63%. For `CCCC(=O)Nc1ccc(Cc2ccc(NC(=O)CCC)cc2)cc1` the value was 2.17%; for `Cc1nccn1CCCNC(=O)c1nc(-c2ccc(C(F)(F)F)cc2)no1`, 3.68%. For `CC(=O)N(c1ccc2oc3c(c2c1)CCCC3)S(=O)(=O)c1ccccc1` the value was 12.4%. As to `O=S(=O)(c1ccc2c3c(cccc13)CC2)N1CCSC1`, the “% Inhibition @ 10 uM” value was -10.8%.

On to `O=C(O)C(Cc1ccccc1)Nc1c2ccccc2nc2ccccc12` (centres unmarked), for which the “% Inhibition @ 10 uM” value is -1.69%.

Turning to `Cc1cc(NC(=O)CN2C(=O)CN(c3ccccc3)C2=O)no1`, the “% Inhibition @ 10 uM” value stood at 0.408%.

As to `COc1cccc(-c2nc(SCc3ccccc3)n3[nH]c(=O)cc3n2)c1`, the “% Inhibition @ 10 uM” value is -4.36%.

`CC(C)CN1CC1C(=O)NCCCO` (centres unmarked): the “% Inhibition @ 10 uM” value was 1.72%.

For `CCOC(=O)c1cc(-c2ccccc2)n(CC(=O)N(C)C2CCCCC2)c1C`, the “% Inhibition @ 10 uM” value is recorded as -3.93%. As to `Sc1nc(-c2ccc3c(c2)OCO3)cn1-c1cccc(Cl)c1`, the “% Inhibition @ 10 uM” value was determined as 19.5%.

For the compound `CCOc1c(Cl)cc(C(=O)Nc2ccc(C(C)=O)cc2)cc1Cl`, the “% Inhibition @ 10 uM” value came to 18.7%. In the case of `O=C(Nc1ccccc1C(=O)NCC1CCCO1)c1ccccc1` (centres unmarked), the “% Inhibition @ 10 uM” value is listed as 0.324%. Turning to `CCN1C=C(C(=O)OC)C(c2cccc(OC)c2OC)C(C(=O)OC)=C1`, the “% Inhibition @ 10 uM” value worked out at 1.88%. Take `O=C1c2cccnc2C(=O)N1Cc1ccc(S(=O)(=O)NCc2ccc(Cl)cc2)s1`: the “% Inhibition @ 10 uM” value is given as 2.48%.

As to `Cc1nc2ccn(Cc3cccnc3)c(=O)c2cc1C(=O)NCc1cccs1`, the “% Inhibition @ 10 uM” value is -7.5%. With `CCCn1c2ccccc2c2cnn(CC(=O)N3CCCCCC3)c(=O)c21`, the “% Inhibition @ 10 uM” value was 0.928%. On to `COc1cccc(CN(C(=O)c2ccc(OC(C)C)cc2)C2CCS(=O)(=O)C2)c1` (centres unmarked), for which the “% Inhibition @ 10 uM” value is -6.85%.

For `O=C1/C(=C/c2ccccc2OCc2ccccc2)Sc2ccccc21`, the “% Inhibition @ 10 uM” value is 1.27%. Turning to `CCN(CC)C(=O)Cn1cc(SCC(=O)N2CCCCC2)c2ccccc21`, the “% Inhibition @ 10 uM” value is on record as -3.73%. `CCCC(=O)Nc1nn2c(COc3ccc(C)cc3)nnc2s1`: the “% Inhibition @ 10 uM” value is recorded as -2.79%. In the case of `O=S(=O)(c1ccc2ccccc2c1)N1CCn2c(nc3ccccc32)C1`, the “% Inhibition @ 10 uM” value is 2.34%. On to `Cn1c(=O)c2c(nc(Oc3ccc4c(c3)OCO4)n2Cc2ccc(F)cc2)n(C)c1=O`, for which the “% Inhibition @ 10 uM” value is reported as -0.511%. `CC(=O)c1cccc(N2C(=O)C3CC=C(Cl)CC3C2=O)c1` (centres unmarked): the “% Inhibition @ 10 uM” value was -8.35%.

With `Cc1nc2c(sc3nc4ccccc4cc32)c(=O)n1-c1ccccc1`, the “% Inhibition @ 10 uM” value is 3.62%. As to `CC1CCN(S(=O)(=O)c2ccc3c(ccn3CCC(=O)NCc3ccccc3Cl)c2)CC1`, the “% Inhibition @ 10 uM” value is on record as -5.04%.

For the compound `Cc1ccc2oc(=O)c3cnn(CC(=O)N4CC=C(c5ccccc5)CC4)c3c2c1`, the “% Inhibition @ 10 uM” value amounted to 1.62%. With `CN(C)c1nc(N)nc(-c2cccnc2)n1` the figure was 2.62%; with `O=C(O)/C(=C/c1ccc2c(c1)OCO2)NC(=O)c1ccco1`, -6.41%. Turning to `CNc1nc(Oc2ccc(O)nn2)nc(N(C)C)n1`, the “% Inhibition @ 10 uM” value was -8.78%. For the compound `CCOc1ccc(CCNC(=O)c2cc3sccc3n2C)cc1`, the “% Inhibition @ 10 uM” value was found to be 0.291%. Consider `COc1ccc(C(=O)COc2ccc3c(C)c(Cl)c(=O)oc3c2)cc1`, for which the “% Inhibition @ 10 uM” value came out at 2.89%. Regarding `Cc1ccc(C(=O)OC(C)CN2CCCC2)cc1` (centres unmarked), the “% Inhibition @ 10 uM” value was -0.0626%. For `O=C1C2CC=CCC2C(=O)N1c1cccc(C(F)(F)F)c1` (centres unmarked) the value was 4.32%; for `Cc1ccc(C(=O)N2CCCc3ccccc32)cc1`, -4.15%. With `Cc1ccc(N2C(=O)c3cccnc3C2=O)nc1`, the “% Inhibition @ 10 uM” value came out at 3.96%. Turning to `O=C(O)c1cccc(NC(=O)c2ccc(Cl)c([N+](=O)[O-])c2)c1`, the “% Inhibition @ 10 uM” value is -3.13%. For `CC1(C)CC(NCC(=O)OC2CCCCC2)CC(C)(C)N1`, the “% Inhibition @ 10 uM” value is -1.82%.

Turning to `CCN(CC)c1ccc2nnc(CCC(=O)NCCC3=CCCCC3)n2n1`, the “% Inhibition @ 10 uM” value is -1.68%. Take `N#Cc1nc2c(-c3nc4ccccc4s3)c(N)n(CCc3ccccc3)c2nc1C#N`: the “% Inhibition @ 10 uM” value was 6.12%. Consider `OC(CN1CCCCC1)Cn1c2ccccc2c2cc(Cl)ccc21` (centres unmarked), for which the “% Inhibition @ 10 uM” value was -3.27%. As for `CCOc1ccc(N2C(=O)/C(=C/c3ccc(Br)o3)C(=O)NC2=S)cc1`, the “% Inhibition @ 10 uM” value amounted to 21.6%. Regarding `O=C(CNC(=O)c1cccs1)NCCC1=CCCCC1`, the “% Inhibition @ 10 uM” value is 3.66%. For `Cc1cc(-c2ccc(S(=O)(=O)NC3CCCCCC3)s2)on1`, the “% Inhibition @ 10 uM” value is given as -0.695%. As to `CCCN(CCC)c1c(N2CCN(C(=O)OCC)CC2)c(=O)c1=O`, the “% Inhibition @ 10 uM” value worked out at 0.277%. Regarding `O=C(Cc1ccc(-n2cccc2)cc1)NCc1ccc(F)cc1`, the “% Inhibition @ 10 uM” value is -5.76%. For `COc1ccccc1NS(=O)(=O)c1c(C(C)C)cc(C(C)C)cc1C(C)C` the value was 3.25%; for `COc1ccc(/C=C/C(=O)c2c(C)cc(C)nc2O)c2ccccc12`, -2.7%; for `COc1ccccc1/C=c1\sc2nc(-c3cccs3)nn2c1=O`, 1.91%. Take `CCOC(=O)c1cnc2c(C)c(Cl)ccc2c1NCc1ccco1`: the “% Inhibition @ 10 uM” value is on record as -2.87%.

`Nc1nc(-c2ccc(O)cc2O)cs1`: the “% Inhibition @ 10 uM” value is -4.32%. As to `Cc1cc(/C=C2/SC(=O)N(C)C2=O)c(C)n1-c1ccncc1`, the “% Inhibition @ 10 uM” value came to 2.38%. On to `Cc1cccc(C(=O)n2nc(-c3ccco3)nc2NCc2ccc(Cl)cc2)c1`, for which the “% Inhibition @ 10 uM” value is on record as 0.0367%. For the compound `CCCCCCOc1ccc(CN2CCN(c3cccc(C(F)(F)F)c3)CC2)cc1`, the “% Inhibition @ 10 uM” value is -3.15%.

Turning to `N#CCNC(=O)[C@H](Cc1c(F)cccc1F)NC(=O)c1ccc(-c2cc(C(=O)O)ccc2Cl)cc1`, the “% Inhibition @ 10 uM” value is reported as 0.079%.

Turning to `C=CCN(Cc1cccc(Cl)c1)C(=O)Nc1ccccc1`, the “% Inhibition @ 10 uM” value is -8.36%. For `O=C(c1ccccc1)N1CCN(c2cc(Cl)ccc2Cl)CC1`, the “% Inhibition @ 10 uM” value was -6.05%. In the case of `COc1ccc(NC(=O)CN(c2ccc(C)cc2C)S(C)(=O)=O)cc1`, the “% Inhibition @ 10 uM” value is reported as -3.28%. `CC(C)C(=O)N1c2ccccc2N=C2CC(C)(C)CC(O)=C2C1c1cccs1` (centres unmarked): the “% Inhibition @ 10 uM” value is recorded as -5.14%. Take `O=C(Cn1cc(C(=O)C(F)(F)F)c2ccccc21)NCc1ccccc1`: the “% Inhibition @ 10 uM” value is -3.28%.

Consider `Oc1ccc(C2CC3CCC2C3)cc1O` (centres unmarked), for which the “% Inhibition @ 10 uM” value is -1.77%. As to `Cc1ccsc1-c1nc(CSCC(=O)NCCN2CCCC2)c(C)o1`, the “% Inhibition @ 10 uM” value was -4.71%. `CCc1ccc(-c2nc3cc(N)ccc3o2)cc1`: the “% Inhibition @ 10 uM” value is given as -3.82%. For `CCC(C(=O)c1ccccc1)n1nnc2ccccc2c1=O` (centres unmarked) the value was -0.0108%; for `O=C(CSc1nnc(CNC(=O)c2ccco2)o1)Nc1nc2ccccc2s1`, 1.85%; for `C=Cc1ccc(CSc2cc(C)nc3nc(C)nn23)cc1`, 1.3%. As for `COc1cc(OC)c(C2CC(c3c(O)cc(C)oc3=O)=NCCS2)cc1OC` (centres unmarked), the “% Inhibition @ 10 uM” value turned out to be 3.31%. With `COc1ccc(-c2cc(C(=O)Nc3cccnc3)c3ccccc3n2)cc1`, the “% Inhibition @ 10 uM” value is given as -7.56%. For the compound `CC(C)c1ccc(OCC(=O)N(Cc2ccco2)Cc2ccco2)cc1`, the “% Inhibition @ 10 uM” value was -1.07%. In the case of `Cc1ccc(OCC(=O)N2CCN(c3ccccc3)CC2)cc1`, the “% Inhibition @ 10 uM” value is reported as -3.48%. As to `COC(=O)c1ccc(C2c3c(oc4ccccc4c3=O)C(=O)N2c2nnc(C(C)C)s2)cc1` (centres unmarked), the “% Inhibition @ 10 uM” value is -6.23%. For `O=C(Nc1cc(O)ccc1C(=O)O)c1cccc(Br)c1` the value was 7%; for `CCCN1CCN(C(=O)Cn2ncc3c4ccccc4n(Cc4c(C)cc(C)cc4C)c3c2=O)CC1`, -0.0741%; for `Cc1oc2c(C)c3oc(=O)c(CC(=O)NCc4ccccc4)c(C)c3cc2c1C`, -6.29%.

Regarding `O=C(Cc1ccccc1)n1nc(-c2cccnc2)nc1NCc1ccc(F)cc1`, the “% Inhibition @ 10 uM” value came to 2.21%.

As to `N#Cc1c(-c2ccccc2)cc(-c2cccc(Br)c2)c(C#N)c1N`, the “% Inhibition @ 10 uM” value is recorded as -1.86%. Regarding `CS(=O)(=O)N1CCc2cc(C(=O)Nc3ccccc3Cl)ccc21`, the “% Inhibition @ 10 uM” value was -5.21%. For the compound `CCOc1ccc(-c2nn(-c3ccccc3)cc2C2NC(=O)NC(C)=C2C(=O)OC)cc1C` (centres unmarked), the “% Inhibition @ 10 uM” value is -7.58%.

On to `Cc1cccc(N(C)C(=O)c2cnn(-c3ccccc3)c2C)c1`, for which the “% Inhibition @ 10 uM” value came to 6.7%.

As to `CC(=O)c1c(C)nn(CC(O)COc2ccc(-c3ccccc3)cc2)c1C` (centres unmarked), the “% Inhibition @ 10 uM” value amounted to 0.895%.

As for `O=C(NCCc1ccc(O)cc1)c1ccccn1`, the “% Inhibition @ 10 uM” value was -3.5%.

As to `Fc1cccc(Cl)c1CN1CCN(Cc2ccccc2)CC1`, the “% Inhibition @ 10 uM” value is 0.273%. On to `CC(=O)Nc1ccc(NC(=O)Cn2cnc3c2c(=O)n(C)c(=O)n3C)cc1`, for which the “% Inhibition @ 10 uM” value is 2.55%. As to `Cc1cccc(-c2nc(CSCC(=O)NCCN3CCCCCC3)c(C)o2)c1`, the “% Inhibition @ 10 uM” value was 3.99%. Consider `Cc1ccc(C2CC(=O)N=C(NC(=O)c3ccc(Cl)cc3)N2)cc1` (centres unmarked), for which the “% Inhibition @ 10 uM” value is recorded as 3.89%. Take `CC1=C(C(=O)Nc2cccc(Cl)c2)C(c2cccc(Cl)c2)NC(=O)N1` (centres unmarked): the “% Inhibition @ 10 uM” value worked out at 2.36%. With `O=C1c2cccnc2C(=O)N1Cc1ccc(S(=O)(=O)N2CCCC3CCCCC32)cc1` (centres unmarked) the figure was 0.107%; with `C=Cc1ccc(Cn2c(C)c(CNCCc3ccccc3)c(C(=O)O)c2C)cc1`, 1.41%; with `Cc1nc2ccccc2n1CCc1nc2c3ccccc3nc(N3CCC(N4CCCCC4)CC3)n2n1`, -0.692%.

Turning to `CC1=C(C(=O)N2CCOCC2)C(c2ccc3c(c2)OCO3)C2=C(O)CC(C)(C)CC2=N1` (centres unmarked), the “% Inhibition @ 10 uM” value is reported as 0.219%. With `O=C(O)CCCn1ccc2cc(S(=O)(=O)N3CCCC3)ccc21` the figure was 3.24%. For the compound `COc1ccc(Br)cc1CN1CCC(C)CC1`, the “% Inhibition @ 10 uM” value was -2.21%.

As to `COc1cccc(NC(=O)Nc2ccc(Cl)cc2)c1`, the “% Inhibition @ 10 uM” value was -2.21%.
